Relative growth data for 39 compounds are collected here from the supplement of paper PMC9446081.

Hit rate of the full screen: of about 39,000 compounds, about 220 (0.56%) showed activity. This is one part of the list.
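Also: static incubation at 37 °C against the wild-type strain, values averaged over two biological replicates.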

This test has as its system Escherichia coli K-12 BW25113. As to the kind of experiment: relative growth (OD600 normalised to plate interquartile mean) (fraction); higher = less growth inhibition, active = 0.2 or less. As to conditions: 50 µM; LB; incubation time: overnight (16-24 h).
As to `CC(C)CC#Cc1cnc2c(c1)C(=O)N([C@H](C)CO)C[C@@H](C)[C@H](CN(C)C(=O)CCN1CCCCC1)O2`, the relative growth is inactive: 0.98.

Take `CC(C)NC(=O)N(C)C[C@@H]1Oc2ccc(NS(=O)(=O)c3cccs3)cc2CC(=O)N([C@H](C)CO)C[C@@H]1C`: the relative growth is inactive: 1.01.

As to `NS(=O)(=O)c1ccc(C(=O)O)cc1`, the relative growth was inactive: 0.924.

As for `C[C@H]1CN([C@@H](C)CO)C(=O)c2cc(NC(=O)Nc3ccc(C(F)(F)F)cc3)ccc2O[C@@H]1CN(C)C(=O)Nc1ccc(F)cc1`, the relative growth was inactive: 1.02.

In the case of `COc1ccccc1CNC(=O)C[C@@H]1CC[C@H]2[C@@H](COC[C@H](O)CN2C(=O)Nc2ccc(Cl)cc2)O1`, the relative growth is inactive: 0.949.

Consider `C[C@@H]1CN([C@H](C)CO)C(=O)c2cc(NS(=O)(=O)c3ccc(Cl)cc3)ccc2O[C@@H](C)CCCCO[C@H]1CN(C)S(=O)(=O)c1cccs1`, for which the relative growth is inactive: 1.03.

For `COc1ccc(NC(=O)N[C@@H]2CC[C@@H](CCNC(=O)CN3CCOCC3)O[C@@H]2CO)cc1`, the relative growth was inactive: 1.04.

On to `C[C@@H]1CCCCO[C@@H](CN(C)C(=O)Nc2ccc(F)cc2)[C@H](C)CN([C@@H](C)CO)C(=O)c2cc(NC(=O)Nc3ccc4c(c3)OCO4)ccc2O1`, for which the relative growth was inactive: 1.04.

`C[C@@H]1CN([C@@H](C)CO)C(=O)c2cc(NC(=O)CCN3CCOCC3)ccc2O[C@@H]1CN(C)Cc1ccncc1`: the relative growth is inactive: 0.997.

For the compound `O=C(C[C@H]1CC[C@@H]2[C@H](COC[C@H](O)CN2S(=O)(=O)c2cccc(Cl)c2)O1)NCCCN1CCOCC1`, the relative growth was inactive: 0.986.

As for `CO[C@H](CN(C)C(=O)c1ccccc1F)[C@H](C)CN([C@H](C)CO)S(=O)(=O)c1ccc(Cl)cc1`, the relative growth is inactive: 0.976.

In the case of `C[C@@H]1CN([C@H](C)CO)S(=O)(=O)c2ccc(Br)cc2O[C@H]1CN(C)C(=O)C1CCCCC1`, the relative growth was inactive: 0.976.

Regarding `C[C@H](CO)N1C[C@H](C)[C@@H](CN(C)C(=O)Nc2cccc3ccccc23)OCc2cnnn2CCCC1=O`, the relative growth is inactive: 0.982.

As to `C[C@H]1CN([C@@H](C)CO)S(=O)(=O)c2ccc(C#Cc3ccncc3)cc2O[C@H]1CN(C)C(=O)c1ccncc1`, the relative growth is inactive: 0.961.

As for `Cc1noc(C)c1S(=O)(=O)Nc1ccc2c(c1)CC(=O)N([C@@H](C)CO)C[C@@H](C)[C@H](CN(C)CC1CC1)O2`, the relative growth was inactive: 1.

`Cc1cc(C(=O)Nc2cccc3c2O[C@@H](CN(C)S(=O)(=O)c2c(C)noc2C)[C@@H](C)CN([C@@H](C)CO)C3=O)n(C)n1`: the relative growth was inactive: 0.982.

Consider `O=C(C[C@@H]1CC[C@@H]2[C@H](COC[C@@H](O)CN2S(=O)(=O)c2ccccc2)O1)NCc1ccncn1`, for which the relative growth was inactive: 0.995.

As for `COc1ccc(NC(=O)N(C)C[C@@H]2Oc3c(NC(=O)CCCCCC(=O)Nc4ccccc4N)cccc3C(=O)N([C@H](C)CO)C[C@H]2C)cc1`, the relative growth is inactive: 1.01.

For `COc1ccc(CN(C)C[C@H]2OCCCC[C@@H](C)Oc3ccc(NS(=O)(=O)c4ccc(F)cc4)cc3C(=O)N([C@H](C)CO)C[C@H]2C)cc1`, the relative growth was inactive: 1.01.

Regarding `C[C@@H]1CCCCO[C@H](CN(C)S(=O)(=O)c2cn(C)cn2)[C@H](C)CN([C@@H](C)CO)C(=O)c2cc(NC(=O)Nc3ccc(C(F)(F)F)cc3)ccc2O1`, the relative growth is inactive: 1.01.

`COCC#Cc1cnc2c(c1)C(=O)N([C@@H](C)CO)C[C@H](C)[C@@H](CN(C)C(=O)c1cnccn1)O2`: the relative growth is inactive: 1.04.

With `Cc1noc(C)c1NC(=O)N(C)C[C@H]1Oc2c(NS(=O)(=O)c3c(C)noc3C)cccc2C(=O)N([C@H](C)CO)C[C@H]1C`, the relative growth was inactive: 0.978.

Regarding `COc1ccc(NC(=O)Nc2ccc3c(c2)C(=O)N([C@H](C)CO)C[C@H](C)[C@@H](CN(C)Cc2ccc(Cl)c(Cl)c2)OCCCC[C@H](C)O3)cc1`, the relative growth is inactive: 1.01.

For `CN1C(=O)c2cc(NC(=O)c3cscn3)ccc2OC[C@H]2O[C@H](CC(=O)N3CCOCC3)CC[C@@H]21`, the relative growth is inactive: 0.999.

On to `Cc1ccc(S(=O)(=O)Nc2ccc3c(c2)C(=O)N([C@@H](C)CO)C[C@H](C)[C@H](CN(C)CC2CCCCC2)OCCCC[C@@H](C)O3)cc1`, for which the relative growth was inactive: 0.96.

On to `CO[C@@H]1CN(C)C(=O)c2ccc(NS(=O)(=O)CC(F)(F)F)cc2OC[C@H](C)N(C(=O)NC(C)C)C[C@H]1C`, for which the relative growth is inactive: 0.992.

With `Nc1ncnc2c1ncn2[C@H]1O[C@@H](CO)[C@H](O)[C@@H]1S`, the relative growth was inactive: 0.999.

`Cc1noc(C)c1NC(=O)N(C)C[C@@H]1Oc2ccc(NC(=O)CCCN(C)C)cc2C(=O)N([C@@H](C)CO)C[C@H]1C`: the relative growth was inactive: 1.03.

As to `O=C(C[C@H]1C=C[C@@H](NC(=O)Cc2ccccn2)[C@@H](CO)O1)NCCc1ccncc1`, the relative growth is inactive: 0.952.

Consider `O=C(C[C@H]1CC[C@H]2[C@@H](COC[C@H](O)CN2S(=O)(=O)c2cccc(Cl)c2)O1)NCc1ccc2c(c1)OCO2`, for which the relative growth is inactive: 0.997.

For the compound `C[C@H](CO)N1C[C@H](C)[C@@H](CN(C)Cc2ccc(-c3ccccc3)cc2)Oc2ccc(NC(=O)Nc3cccc4ccccc34)cc2C1=O`, the relative growth was inactive: 0.988.

For `COc1cccc(-c2ccc3c(c2)O[C@@H](CN(C)C(=O)C2CC2)[C@@H](C)CN([C@H](C)CO)S3(=O)=O)c1`, the relative growth was inactive: 0.989.

On to `C[C@H]1CN([C@@H](C)CO)S(=O)(=O)c2ccc(-c3cccc(C#N)c3)cc2O[C@H]1CN(C)C(=O)c1ccncc1`, for which the relative growth is inactive: 1.

With `C[C@H](CO)N1C[C@H](C)[C@@H](CN(C)C(=O)Nc2ccc(C(F)(F)F)cc2)Oc2ccc(NC(=O)Nc3ccc4c(c3)OCO4)cc2CC1=O`, the relative growth was inactive: 1.04.

As to `CN(CC(=O)NC1CCCC1)S(=O)(=O)c1ccc2c(c1)c(=O)n(C)c(=O)n2C`, the relative growth was inactive: 1.01.

`N=C(N)c1ccc(C(N)=O)cc1`: the relative growth is inactive: 0.998.

`O=C(NCCCN1CCOCC1)c1cccnc1`: the relative growth is inactive: 1.01.

On to `COc1ccc(S(=O)(=O)N(C)C[C@H]2Oc3ccc(N(C)C)cc3C(=O)N([C@H](C)CO)C[C@@H]2C)cc1`, for which the relative growth is inactive: 1.05.

With `COc1ccc(S(=O)(=O)N(C)C[C@@H]2Oc3ncc(-c4ccncc4)cc3C(=O)N([C@H](C)CO)C[C@H]2C)cc1`, the relative growth is inactive: 0.999.
